We go through 14 molecules from patent US20220125947A1.

Assay [1] addresses TCR Vδ2 (TRDV2) (human), A0JD36. Kind of assay: cell-based or functional assay.
The target in assay [2] is T cell receptor Vδ2 (TRDV2) on T cells in PBMCs (human), A0JD36. Nature of the assay: cell-based or functional assay.

Substitutions are numbered along the chain they refer to.

T cell receptor Vδ2 (TRDV2) on T cells in PBMCs (human), A0JD36, sequence (A0JD36 20-115, stated change not applied): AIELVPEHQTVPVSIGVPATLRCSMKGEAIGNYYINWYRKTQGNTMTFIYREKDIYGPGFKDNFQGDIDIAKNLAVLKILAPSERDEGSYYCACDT
TCR Vδ2 (TRDV2) (human), A0JD36, sequence (A0JD36 20-115, stated change not applied): as above

B1: VG9B114 (antibody, human IgG1, kappa)
heavy: EVQLVESGGDLVQPGGSLRLSCAASGFTFSRYDMHWVRQATGKGLEWVSAIGSAGDTYYPGSVKGRFTISRENAKNSLYLQMNSLRAGDTAVYYCARGKWELRDAFDIWGQGTMVTVSS[human IgG1 constant region omitted here]
light: DIVMTQSPSFLSASVGDRVTITCRASQGIHSYLAWYQQKPGKAPKLLIYVASTLQSGVPSRFSGSRSGTEFTLTISSLQPEDFATYYCQQLNSYPYTFGQGTKLEIKRTVAAPSVFIFPPSDEQLKSGTASVVCLLNNFYPREAKVQWKVDNALQSGNSQESVTEQDSKDSTYSLSSTLTLSKADYEKHKVYACEVTHQGLSSPVTKSFNRGEC
As for B1, in assay [1], the CD25+ (Vg9+ cells), flow staining was 53.7%; the CD71+ (Vg9+ cells), flow staining was found to be 98.3%; the Granzyme B, Luninex (supernatant) was determined as 3900; the IFNγ, Luninex (supernatant) came to 1080. For the same molecule, in assay [1], the IL6, Luninex (supernatant) worked out at 731; the TNFα, Luninex (supernatant) came out at 7000; the Vg9 T cell %, flow staining was found to be 9.7%.

B2: VG9B189 (antibody, human IgG1, lambda)
heavy: EVQLVQSGGGLVKPGASLKLSCAASGFTFSNHGMSWVRQTSDKRLEWVASITRGGDTTYYPDNVKGRFTISRENAKNTLYLQMSSLKSDDTALYYCTRGPLTVGYAMDYWGQGTTVTVSS[human IgG1 constant region omitted here]
light: QSVVTQPPSASGSPGQSVTISCTGTSSDVGGYNYVSWYQQHPGKAPKLMIYEVSKRPSGVPDRFSGSKSGNTASLTVSGLQAEDEADYYCNSYAGSNNFEVFGGGTKVTVLGQPKAAPSVTLFPPSSEELQANKATLVCLISDFYPGAVTVAWKADSSPVKAGVETTTPSKQSNNKYAASSYLSLTPEQWKSHRSYSCQVTHEGSTVEKTVAPTECS
As for B2, in assay [2], the CD25+ (Vg9+ cells), flow staining was found to be 11.6%; the CD71+ (Vg9+ cells), flow staining worked out at 80%; the Granzyme B, Luninex (supernatant) was found to be 230; the IFNγ, Luninex (supernatant) was 44. For the same molecule, in assay [2], the IL6, Luninex (supernatant) came to 30; the TNFα, Luninex (supernatant) is 64; the Vg9 T cell %, flow staining worked out at 3.5%.

B3: VG9B466 (antibody, human IgG1, lambda)
heavy: QVQLVQSGPGLVKPSETLSLTCTVSGGSISNYYWSWIRQPAGKGLGWIGRIYSSGITNYNPSLKSRVTMSVDTSKNQLSLKLSSVTAADTAVYYCAGIVGVKGAFAIWGQGTMVTVSS[human IgG1 constant region omitted here]
light: SYELTQPASVSGSPGQSITISCTGTSSDVGGYNYVSWYQQHPGKAPKLMIYEVSNRPSGVSNRFSGSKSGNTASLTISGLQAEDEADYYCSSYTSTSVVFGGGTKLTVLGQPKAAPSVTLFPPSSEELQANKATLVCLISDFYPGAVTVAWKADSSPVKAGVETTTPSKQSNNKYAASSYLSLTPEQWKSHRSYSCQVTHEGSTVEKTVAPTECS
On to B3, for which, in assay [2], the CD25+ (Vg9+ cells), flow staining came out at 21.7%; the CD71+ (Vg9+ cells), flow staining was determined as 84.6%; the Granzyme B, Luninex (supernatant) was found to be 2380; the IFNγ, Luninex (supernatant) amounted to 1190. In addition, in assay [2], the IL6, Luninex (supernatant) was found to be 558; the TNFα, Luninex (supernatant) came out at 5870; the Vg9 T cell %, flow staining is 2.6%.

B4: VG9B460 (antibody, human IgG1, lambda)
heavy: B3 heavy with Q1E, Q6E
light: B3 light with S1Q, Y2L, E3V
With B4, in assay [2], the CD25+ (Vg9+ cells), flow staining was determined as 18.5%; the CD71+ (Vg9+ cells), flow staining was determined as 88%; the Granzyme B, Luninex (supernatant) was 1250; the IFNγ, Luninex (supernatant) is 410. In assay [2], this molecule registered an IL6, Luninex (supernatant) of 528; a TNFα, Luninex (supernatant) of 333; a Vg9 T cell %, flow staining of 3.2%.

B5: VG9B450 (antibody, human IgG1, lambda)
heavy: B3 heavy with Q1E, V5Q, Q6E
light: B3 light with S1Q, Y2S, E3V
B5: in assay [2], the CD25+ (Vg9+ cells), flow staining came to 26.1%; the CD71+ (Vg9+ cells), flow staining turned out to be 83.9%; the Granzyme B, Luninex (supernatant) amounted to 1380; the IFNγ, Luninex (supernatant) is 560. In assay [2], the IL6, Luninex (supernatant) was 293; the TNFα, Luninex (supernatant) was 1510; the Vg9 T cell %, flow staining worked out at 3.5%.

B6: VG9B438 (antibody, human IgG1, lambda)
heavy: B3 heavy with Q1E, Q6E
light: B3 light
Take B6: in assay [2], the CD25+ (Vg9+ cells), flow staining was found to be 28.2%; the CD71+ (Vg9+ cells), flow staining stood at 86.4%; the Granzyme B, Luninex (supernatant) stood at 2360; the IFNγ, Luninex (supernatant) was determined as 653. In assay [2], the IL6, Luninex (supernatant) was found to be 387; the TNFα, Luninex (supernatant) amounted to 1420; the Vg9 T cell %, flow staining amounted to 4.2%.

B7: VG9B457 (antibody, human IgG1, lambda)
heavy: B3 heavy with Q1E, Q6E
light: B3 light with S1Q, Y2A, E3V
On to B7, for which, in assay [2], the CD25+ (Vg9+ cells), flow staining came to 24%; the CD71+ (Vg9+ cells), flow staining stood at 83.2%; the Granzyme B, Luninex (supernatant) was 1840; the IFNγ, Luninex (supernatant) worked out at 778. For the same molecule, in assay [2], the IL6, Luninex (supernatant) amounted to 1070; the TNFα, Luninex (supernatant) turned out to be 1200; the Vg9 T cell %, flow staining amounted to 3.4%.

B8: VG9B442 (antibody, human IgG1, lambda)
heavy: B3 heavy with Q6E
light: B3 light with S1Q, Y2S, E3A, L106V
In assay [2], B8 displayed a CD25+ (Vg9+ cells), flow staining of 18.4%; a CD71+ (Vg9+ cells), flow staining of 82%; a Granzyme B, Luninex (supernatant) of 1310; an IFNγ, Luninex (supernatant) of 322. Further, in assay [2], the IL6, Luninex (supernatant) was determined as 542; the TNFα, Luninex (supernatant) amounted to 617; the Vg9 T cell %, flow staining is 3.9%.

B9: VG9B436 (antibody, human IgG1, lambda)
heavy: B3 heavy with Q1E, Q6E
light: B3 light with S1Q, Y2S, E3V
Regarding B9, in assay [2], the CD25+ (Vg9+ cells), flow staining stood at 21.5%; the CD71+ (Vg9+ cells), flow staining amounted to 87%; the Granzyme B, Luninex (supernatant) turned out to be 1080; the IFNγ, Luninex (supernatant) worked out at 230. In assay [2], this molecule registered an IL6, Luninex (supernatant) of 149; a TNFα, Luninex (supernatant) of 271; a Vg9 T cell %, flow staining of 3.9%.

B10: VG9B437 (antibody, human IgG1, lambda)
heavy: B3 heavy with Q1E, V5Q, Q6E
light: B3 light with S1Q, Y2S, E3A
In assay [2], B10 displayed a CD25+ (Vg9+ cells), flow staining of 20.4%; a CD71+ (Vg9+ cells), flow staining of 85.4%; a Granzyme B, Luninex (supernatant) of 1490; an IFNγ, Luninex (supernatant) of 666. In assay [2], the IL6, Luninex (supernatant) amounted to 899; the TNFα, Luninex (supernatant) was found to be 311; the Vg9 T cell %, flow staining turned out to be 3.7%.

B11: VG9B434 (antibody, human IgG1, lambda)
heavy: B3 heavy with V5Q, Q6E
light: B3 light with S1Q, Y2S, E3V
For B11, in assay [2], the CD25+ (Vg9+ cells), flow staining came out at 20.5%; the CD71+ (Vg9+ cells), flow staining was determined as 85.3%; the Granzyme B, Luninex (supernatant) was found to be 4800; the IFNγ, Luninex (supernatant) amounted to 900. In addition, in assay [2], the IL6, Luninex (supernatant) was 985; the TNFα, Luninex (supernatant) was 478; the Vg9 T cell %, flow staining turned out to be 4.2%.

B12: VG9B464 (antibody, human IgG1, lambda)
heavy: B3 heavy with Q1E, M113T
light: B3 light with S1Q, Y2S, E3A
In assay [2], B12 yielded a CD25+ (Vg9+ cells), flow staining of 26.6%; a CD71+ (Vg9+ cells), flow staining of 86.2%; a Granzyme B, Luninex (supernatant) of 2490; an IFNγ, Luninex (supernatant) of 1580. In assay [2], this molecule registered an IL6, Luninex (supernatant) of 392; a TNFα, Luninex (supernatant) of 5480; a Vg9 T cell %, flow staining of 3.3%.

B13: VG9B53 (antibody, human IgG1, kappa)
heavy: QVQLQESGPGLVKPSETLSLTCTVSGGSISSYYWSWIRQPAGKGLEWIGRIHTIGSINYNPSLKSRVTMSVDTSKNQFSLKLSSVTAADTAVYYCAMEGVGATNYYYGMAVWGRGTMVTVSS[human IgG1 constant region omitted here]
light: [about 120 residues omitted here][about 100 residues omitted here]
On to B13, for which, in assay [1], the CD25+ (Vg9+ cells), flow staining is 10.8%; the CD71+ (Vg9+ cells), flow staining was 81.4%; the Granzyme B, Luninex (supernatant) came to 125; the IFNγ, Luninex (supernatant) worked out at 44. In assay [1], the IL6, Luninex (supernatant) was 17; the TNFα, Luninex (supernatant) came to 9; the Vg9 T cell %, flow staining was 3.7%.

B14: VG9B41 (antibody, human IgG1, kappa)
heavy: QVQLQESGPQLVRPGASVKISCKASGYSFTTYWMHWVKQRPGQGLEWIGLIDPSDSETRLNQKFKDKATLTVDKSSSTAYMRLSSPTSEDSAVYYCASNRWLLGWGQGTMVTVSS[human IgG1 constant region omitted here]
light: EIVLTQTPLSSPVTLGQPASISCRSSQSLVHSDGNTYLSWLHQRPGQPPRLLIYKISNRFSGVPDRFSGSGAGTDFTLKISRVETEDVGVYYCVQTREFPLTFGGGTKVEIKRTVAAPSVFIFPPSDEQLKSGTASVVCLLNNFYPREAKVQWKVDNALQSGNSQESVTEQDSKDSTYSLSSTLTLSKADYEKHKVYACEVTHQGLSSPVTKSFNRGEC
In assay [1], B14 registered a CD25+ (Vg9+ cells), flow staining of 16.9%; a CD71+ (Vg9+ cells), flow staining of 79.5%; a Granzyme B, Luninex (supernatant) of 274; an IFNγ, Luninex (supernatant) of 29. In assay [1], this molecule displayed an IL6, Luninex (supernatant) of 95; a TNFα, Luninex (supernatant) of 213; a Vg9 T cell %, flow staining of 4.8%.
